# Data from ChEMBL document CHEMBL4888484, “Replenishing the malaria drug discovery pipeline: Screening and hit evaluation of the MMV Hit Generation Library 1 (HGL1) against asexual blood stage Plasmodium falciparum ,using a nano luciferase reporter read-out” (2022).
# In all, about 150,000 compounds went through this assay and about 540 (0.36%) showed an effect of 50% or more. The list shows a part of the results.
# System: Plasmodium falciparum
# Experiment: Primary screen in NF54 nanoGlo assay, in single point, at 2uM, 72h; a lower Z score goes with more inhibition
# Type: functional, Erythrocyte
# Details: timepoint 72 hour
Compound,% Inhibition,Z score
CCC(CC)C(=O)N1CCCN(C(=O)c2ccncc2)[C@H](c2nc(C)n[nH]2)C1,-3%,0.59
CCc1c(C)sc2c1CCN(CC(=O)NCc1ccc3c(c1)OCO3)[C@@H]2c1ccccc1,-14%,1.41
O=S(=O)([C@H]1CCN(Cc2ccccc2)C1)N1CCC(c2nc3ccccc3s2)CC1,-21%,1.89
Cc1noc(C)c1S(=O)(=O)NCc1cccnc1N(C)Cc1ccccc1,11%,-0.94
CCCCOCCn1c(C(F)(F)F)ccc(C(N)=O)c1=O,-15%,1.53
CCNC(=O)CC1(Cc2nc3cccnc3n2CC(C)C)CCCC1,4%,-0.55
CC(N)C1CCCN(C(=O)c2cn(C(C)(C)C)nc2-c2ccc(F)cc2F)C1 (stereo not given),7%,-0.99
Cc1cc(N2CC3CCCC3C2)n2ncnc2n1 (stereo not given),-4%,0.6
Cn1cnc2cc(CNC3(C(F)(F)F)CCC3)ccc21,18%,-2.07
C[C@H]1CN(C)C(C)(C)CN1c1ccnc(C(=O)NCc2cccnc2)c1,-9%,0.83
CN(Cc1ccccc1)c1nc(-c2ccc(F)cc2)c2c(N)n(-c3ccc(Cl)cc3)nc2n1,3%,-0.32
CCC(OC1CCCC(C)C1)C(=O)NCC1CCOC1 (stereo not given),-7%,1.11
CC(=O)N[C@H]1CNC(=O)C1(c1ccccc1)c1ccccc1,-2%,0.25
COc1ccc(CC(=O)N2CCN(C3=Nc4ccccc4Oc4ccc(C)cc43)CC2)cc1,0%,-0.02
CCCn1nc(C(=O)N(C)Cc2cccnc2)ccc1=O,-3%,0.4
COc1cccc2c(=O)n(C3(C4CCCC4)CC3)cnc12,-6%,0.8
C[C@H](NC(=O)c1cccc(N(C)C)c1)c1ccc2c(c1)OCCO2,-4%,0.51
COCCN1CCC[C@H]1C(=O)NC1CC1,-3%,0.57
OCC1([C@H](NCc2cc(O)cc(F)c2)c2ccccc2)CCOCC1,-11%,1.14
O=C([C@@H]1CC[C@H](C(=O)N2CCOC3(CCC3)C2)C1)N1CCOC2(CCC2)C1,4%,-0.68
C[C@@]1(C(=O)NC2CCCCCCC2)Cn2c(cc3occc32)C(=O)N1c1ccc(Cl)cc1,-5%,0.99
CCCN(CC#N)CC(=O)Nc1cc(C)no1,-5%,0.46

Compound,% Inhibition,Z score
CC[C@H](NC(=O)c1nc2n(n1)CCCN2)c1ncc[nH]1,-16%,1.7
Clc1cc(-n2cnnn2)ccc1Oc1ccccc1,2%,-0.2
CCc1cccc(/N=C(\NC(=O)c2ccccc2)N2CCN(Cc3ccccc3F)CC2)c1,1%,-0.17
Cc1sccc1NC(=O)NCc1cc(C(F)F)on1,-11%,2.03
COc1cccc(CN2CCC[C@H]2c2nnc(C3CCOCC3)[nH]2)c1OC,-7%,1.33
CC(C)Cn1nc2n(c1=O)[C@H](C(=O)N1CCN(c3ccccn3)CC1)CCCC2,-6%,0.56
Cc1ccccc1[C@H]1CN(C(=O)Cn2nc(C)c(C)c2C)C[C@@H]1C(=O)O,-2%,0.22
CN(C[C@H]1CCCO1)C(=O)Nc1ncc(Cc2ccccc2)s1,-4%,0.43
O=c1[nH]c(N2CCC3(CC2)OCCO3)nnc1-c1ccccc1,2%,-0.32
Cc1cc(C)c(C(=O)NCCN(C(=O)c2oc(C)cc2C)C2CC2)o1,-7%,0.67
CC1CN(C(=O)C2CCC(C)(C)O2)CCN(C(=O)C2CCC(C)(C)O2)C1 (stereo not given),-4%,0.48
O=C(NCc1ccnc(C(F)(F)F)c1)NC1(C2CC2)CC1,7%,-0.64
COc1ccc(CN2CCC[C@]3(CCCN(C)C3)C2)cc1OCC(=O)O,-6%,1.21
Cc1nc(CN2CCn3c(nnc3C(F)(F)F)C2)sc1C,-8%,1.07
O=S(=O)(c1cccnc1)N1CCC[C@@H]1Cc1noc(-c2ccccc2)n1,-7%,1.35
O=C1CC[C@@H]2CN(c3cnccn3)CC[C@@H]2N1CCc1ccccn1,-3%,0.49
CN(CC(F)(F)F)C(=O)CNc1ncccn1,3%,-0.38
CN(CCc1ccncc1)C[C@H](O)c1ccccc1F,-8%,1.14
CCc1ccc(-c2nc(C)c(C(=O)N(CC(=O)O)C3CCOCC3)s2)cc1,-2%,0.32
CCC(CC)(CC)NC(=O)c1cc(C)nc(C)n1,-1%,0.31
Cc1cc(NC(=O)N2CCC[C@H]2c2nnc3ccccn23)n(C)n1,-17%,2.71
CCNc1ccnc(N2CCC(F)(F)CC2)n1,1%,-0.13

Compound,% Inhibition,Z score
O=C1CN(Cc2cc(Br)c3c(c2)OCO3)CCN1,13%,-1.76
CC(=O)Nc1cc(Cl)ccc1NCC(=O)NCC(F)(F)F,-10%,1.24
Fc1cnccc1N1CC[C@H]2[C@H](C1)OCc1cnnn12,-8%,1.56
O=C(N[C@H]1CC[C@H](O)CC1)N1CCC(c2cccc(O)c2)CC1,-8%,1.47
c1ccc2c(c1)CCCC2N1CCCC(Cn2cncn2)C1 (stereo not given),-9%,1.31
Cc1noc(C)c1CC(=O)N1CCC2(CC1)CC[C@]2(C)O,-13%,1.56
C[C@@H](C(=O)NCCc1ccccc1)S(C)(=O)=O,-4%,0.73
CNC(=O)[C@H]1CN(C)C[C@@H]1NS(=O)(=O)c1ccc(F)c(F)c1,-3%,0.43
CC(C)[C@H](CNc1ncc(Cl)cn1)N(C)C,-22%,2.36
CC(C)(C)OC(=O)N1CC(=C2NCCCN2)C1,-8%,1.05
CN(C)c1cccc(-c2cccc(-c3ccn(CCO)n3)c2)c1,-11%,0.97
O=S1(=O)C[C@H](CNC2CCC(F)(F)CC2)c2ccccc21,-14%,2.55
Cc1ccc(S(=O)(=O)N2CC=C(c3c(C)n(Cc4cccc(F)c4)c4ccccc34)CC2)cc1,10%,-1.29
CC1C(=O)C(C(=O)Nc2cccnc2)C(=O)N1Cc1ccccc1 (stereo not given),9%,-1.52
Cc1cn(C(C)(C)C(=O)N[C@@H](C)c2cc(Cl)cc3c2OCC3)cn1,6%,-0.98
Cc1csc(-c2cc(NC(=O)Cc3cccc(F)c3)c(C)s2)n1,-14%,1.32
O=c1nc2n(nc1-c1ccccc1)C1(CCCCC1)Nc1ccccc1-2,-10%,1.25
CC1=C[C@@H](CN2CCC(CO)CC2)[C@H](C(C)C)C[C@H]1Cc1nnc(-c2ccncc2)o1,26%,-2.94
O=C1C2ON(c3ccccc3)C(c3ccc(Cl)cc3Cl)C2C(=O)N1c1cccc(-c2ccccc2)c1 (stereo not given),-5%,0.5
CC(c1cnn(C)c1)c1nc(C2(C)C=CCCC2)no1 (stereo not given),-2%,0.43
CCOC(=O)c1cc(OCC)ccc1N,-6%,0.55
O=C(NCCc1cc(O)ncn1)c1ccc2nc(-c3ccccc3)cn2c1,-6%,0.8

Compound,% Inhibition,Z score
CCn1cncc1CNS(=O)(=O)c1ccc(C(=O)NC2CC2)cc1,1%,-0.14
O=C(CCc1cccs1)NCC(C1CCOC1)N1CCOCC1 (stereo not given),-5%,0.58
CO[C@H]1C[C@@H](O)C12CCN(C(=O)c1ccc(C#N)cc1)CC2,-1%,0.24
O=S(=O)(Nc1ccnc2ccncc12)c1ccc(F)c(F)c1,-14%,1.42
C#CCN(C)[C@@H](C)c1nc(COC)no1,-11%,1.25
N#Cc1ccc(NCc2ccc3c(c2)OCO3)nc1,-15%,1.34
CC1CCC(NC(=O)[C@H]2c3cccn3CC(=O)N2Cc2ccccc2)CC1 (stereo not given in full),-16%,2.12
Cc1c([C@@H](NC(=O)c2ccc(=O)n(C)n2)C(C)C)oc2ccccc12,12%,-1.75
CCN(CC(=O)Nc1c(F)cccc1F)C(=O)c1cc(C)on1,-9%,1.21
CC(NC(=O)N1CCC(F)(F)C1)C(=O)N1c2ccccc2CC1C (stereo not given),-14%,2.18
Cc1cc(C)c(N2CC[C@H](NCc3csnn3)C2=O)c(C)c1,-2%,0.24
COc1cc(CN2C[C@H](C(=O)O)[C@@H](c3ccccc3OC)C2)cc(OC)c1,-10%,1.96
CC12CC(c3ccccc3O1)C(C(N)=O)C(=O)N2CCn1ccc2ccc(Cl)cc21 (stereo not given),-7%,0.87
Fc1cnc(-c2ccc3c(c2)OCO3)nc1N1CCOCC1,1%,-0.06
Cc1cc(NC(=O)c2cccc(=O)[nH]2)nn1[C@@H](C)C1CC1,-19%,2.47
CCN(CC)CC1CCN(C(=O)c2ccc3cc[nH]c3c2)CC1,2%,-0.27
COc1ccc(Cc2n[nH]c(C3CCN(C(C)C)CC3)n2)cc1OC,-10%,1.74
C#CC(CC)Oc1ccc(COC(=O)C(C)N(C)CC(F)(F)F)cc1 (stereo not given),1%,-0.2
Fc1ccc2ncnc(Oc3cccnc3)c2c1,33%,-3.77
